# Test results from PubChem BioAssay AID624417 (National Center for Advancing Translational Sciences (NCATS), 2012).
# Among all 410,000 compounds or so, about 6,400 (1.6%) were called active. This list was built around the results that the source calls inconclusive (neither active nor inactive); the mix of calls is not that of the screen. Calls follow the shape of the dose curve; as a rule, active = well fitted inhibition curve with a large enough effect; inconclusive = small, poorly fitted or top-dose-only effect; inactive = no such curve, though single readings can be large or run the other way. Potencies of inconclusive entries are left out as doubtful fits.
# Molecular target: Glucagon-like peptide 1 receptor (Homo sapiens) (UniProt P43220)
# Test: qHTS of GLP-1 Receptor Inverse Agonists (Inhibition Mode); also: nearly all actives have a fitted effect of over 55% in size
# Details: HEK293 GLP-1R CRE-luciferase, luminescence, 24 h, GLP-1R form is constitutively active; activity change, negative = inhibition: at 38.3 µM (top of the series) unless noted
# Summary of the method: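 Cells are plated, allowed 12 hours at 37 deg C, then treated with compounds for 24 hr before luciferase detection reagent is added and luminescence is read after 12 min at room temperature. The HEK293 line carries constitutively active GLP-1R with a cAMP-responsive reporter.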
# % is scaled to controls: 0 for no effect and ±100 for the full control effect; potency is read from the fitted curve at half-maximal effect; tags tell the direction and shape of the fitted curve.
# Chain of UniProt P43220 (P43220 whole entry, looked up): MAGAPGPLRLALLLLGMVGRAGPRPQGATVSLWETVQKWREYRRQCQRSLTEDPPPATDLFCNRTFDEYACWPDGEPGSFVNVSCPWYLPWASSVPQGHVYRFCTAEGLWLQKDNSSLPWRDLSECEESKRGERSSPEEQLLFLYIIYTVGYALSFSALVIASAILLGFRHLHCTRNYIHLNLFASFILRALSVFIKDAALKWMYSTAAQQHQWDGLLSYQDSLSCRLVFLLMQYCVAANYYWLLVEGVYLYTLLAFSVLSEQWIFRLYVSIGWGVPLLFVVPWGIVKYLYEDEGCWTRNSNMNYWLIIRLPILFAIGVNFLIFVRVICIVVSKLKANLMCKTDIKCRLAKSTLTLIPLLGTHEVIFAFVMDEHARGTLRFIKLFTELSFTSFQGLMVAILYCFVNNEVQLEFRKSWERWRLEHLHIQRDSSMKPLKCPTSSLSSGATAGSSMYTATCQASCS
SMILES,"activity change, negative = inhibition",Potency
COc1ccc2ccccc2c1/C=N/Nc1ccc(Cl)c(C(=O)O)c1,inactive: 5.87%,
O=C1C=CC(=O)N1c1ccc2c(c1)Cc1cc(F)ccc1-2,,"inconclusive [inhibitor, single point]"
O=C(CSc1nnc(-c2ccco2)o1)c1ccc([N+](=O)[O-])cc1,inactive: 21.7%,
CCOC(=O)[C@]12CCC=C1N(Cc1ccc(Cl)cc1Cl)C(=O)[C@H](CC(=O)N1CCCC1)C2,,"inconclusive [inhibitor, partial curve]"
Cc1ccc2nc(NC(=O)CSc3nc(=O)n(CCCN(C)C)c4c3CCC4)sc2c1,,"inconclusive [inhibitor, partial curve, poor fit]"
S=C(NCCc1ccccc1)NC1CC2CCC(C1)N2Cc1ccccc1 (stereo unspecified),,"inconclusive [inhibitor, partial curve, poor fit]"
COc1ccc(CCNC(=O)c2cc([N+](=O)[O-])ccc2N2CCOCC2)cc1,,"inconclusive [inhibitor, partial curve, poor fit]"
COc1cccc(NC(=O)CN(Cc2ccccc2)S(=O)(=O)c2ccc3nc(C)sc3c2)c1,,"inconclusive [inhibitor, partial curve, poor fit]"
COc1ccc(CN2CCC(CO)(CCOc3ccccc3)CC2)c(OC)c1C,,"inconclusive [inhibitor, partial curve, poor fit]"
CC1Cc2ccccc2N1C(=O)CSc1nc2ccccc2o1 (stereo unspecified),,"inconclusive [inhibitor, single point]"
COc1cc(C=CC(=O)c2cc(OC)c(OC)c(OC)c2)cc(OC)c1OC,,"inconclusive [inhibitor, partial curve, poor fit]"
CCOc1cc(/C=N\NC(=O)c2ccc(NC(=O)C(C)(C)C)cc2)ccc1OC(=O)c1cccc(C)c1,,"inconclusive [inhibitor, partial curve, poor fit]"
COc1ccc(-c2nnc(SCC(=O)Nc3nc4ccccc4s3)n2C)cc1,inactive: -14.2%,
CC(=O)Nc1cccc(-c2cnc(N)c(C(=O)c3cccnc3)n2)c1,,"inconclusive [inhibitor, full curve, poor fit]"
CC(C)c1nnc(NC(=O)c2nc(SCc3ccc(F)cc3)ncc2Cl)s1,inactive: -11.1%,
CCOc1cccc(/C=N/NC(=S)Nc2ccccc2[N+](=O)[O-])c1O,,"inconclusive [inhibitor, full curve, poor fit]"
O=C(/C=C/c1c(Cl)cccc1Cl)N1CCOCC1,inactive: 9.54%,
CCOc1ccc(CCNC(=O)Nc2cccc(OC)c2)cc1OCC,,active: 11.2 µM
Cc1c(C(=O)OCC(C)C)[nH]c2c1C(=O)CC(c1ccco1)C2 (stereo unspecified),,"inconclusive [inhibitor, full curve, poor fit]"
COc1ccc(-n2cc(CNCCCn3ccnc3)c(-c3cccc(F)c3)n2)cc1,,"inconclusive [inhibitor, partial curve, poor fit]"
COc1ccc(C(CNC(=O)C(=O)NC2CCCC2)N2CCN(C)CC2)cc1 (stereo unspecified),,"inconclusive [inhibitor, partial curve, poor fit]"

SMILES,"activity change, negative = inhibition",Potency
O=C(NN=Cc1c(O)ccc2ccccc12)c1ccc2c(c1)OCO2,,"inconclusive [inhibitor, full curve, poor fit]"
CN(CC(=O)Nc1ccc(F)cc1)C(=O)c1cccc(S(=O)(=O)N2CCN(c3ccc(F)cc3)CC2)c1,,"inconclusive [inhibitor, single point]"
CC(C)c1onc(C(=O)N2CCN(c3ccccc3)CC2)c1[N+](=O)[O-],inactive: -7.95%,
O=C(COC(=O)c1ccc(O)cc1O)Nc1cc(-c2ccccc2)nn1-c1ccccc1,,"inconclusive [inhibitor, partial curve, poor fit]"
O=C(Nc1ccc(Cl)cc1)N[C@@H]1c2c(ccc3ccccc23)OC[C@@H]1CO,,"inconclusive [inhibitor, partial curve]"
Cc1ccc(/C=C/C(=O)N2CCCN(C(=O)/C=C/c3ccc(C)cc3)CC2)cc1,,"inconclusive [inhibitor, partial curve, poor fit]"
COc1ccccc1N1CCN(S(=O)(=O)c2cc(C)sc2C)CC1,,active: 10 µM
CCCN1CCC(=O)N([C@H](COc2ccccc2)CC(C)C)CC1,inactive: 1.29%,
COC(=O)C1CN(C(=O)COc2ccc(Cl)c(C)c2)c2ccccc2O1 (stereo unspecified),,"inconclusive [inhibitor, partial curve, poor fit]"
COc1ccc2ccc(OC)c(/C=N/NC(=O)c3cc4ccccc4o3)c2c1,,"inconclusive [inhibitor, partial curve, poor fit]"
Cc1nn(C)c2ncc(C(=O)c3ccccc3O)cc12,inactive: 7.81%,
Cc1ccccc1CN1CCN(C/C=C/c2ccccc2)CC1,,"inconclusive [inhibitor, partial curve, poor fit]"
C[C@H](CO)N1C[C@H](C)[C@@H](CN(C)CC2CCCCC2)Oc2c(NC(=O)Cc3ccccc3)cccc2C1=O,,"inconclusive [inhibitor, single point]"
Cc1ccc(C)c(S(=O)(=O)c2nnn3c2nc(NCc2cccs2)c2sccc23)c1,,"inconclusive [inhibitor, single point]"
Cc1ccc(/C(N)=N/OC(=O)c2cccs2)cc1,inactive: 7.89%,
COc1ccc(NC(=O)Cc2csc(COc3cccc(C)c3)n2)cc1OC,,"inconclusive [inhibitor, single point]"
CCc1ccc(-n2c(SCC(=O)NC(C)CC)nc3n[nH]c(C)c3c2=N)cc1 (stereo unspecified),inactive: -7.91%,
COc1ccc(N2CC(NC(=O)c3ccc4c(c3)OCO4)CC2=O)cc1OC (stereo unspecified),,"inconclusive [inhibitor, full curve]"
CCOCCCN1CC(=O)N2[C@@H](Cc3c([nH]c4ccccc34)C2(C)C)C1=O,inactive: -23.7%,
O=S1(=O)CCN(Cc2csc(-c3cccs3)n2)CC1,,"inconclusive [inhibitor, single point]"
